Experimental data: PMC12136788
This is one part of the list.

B1: chr6:31700130:31700131:-_ENSG00000213719_ENST00000375779|hu_mus|FALSE|FALSE (ssRNA)
RNA: GGGAGUUCUACAGUCCGACGAUCAUCUUCGGCGCUGGUUUCAUCCACUUCUUCUGGGAGGGGGGAUGUCAGGUAAUUGUCUAGAACCUUCAGGGCUUUCAGGAGUCCCUUCUCUAGGUUGUCAUUGAGGGCUGGGUUUGAGUUCAACAGAGGAUUGAGCAUCA
B2: chr6:114281168:114281169:-_ENSG00000196591_ENST00000368632|hu_hu|hu_hu_hu_mus_True|18_78 (ssRNA)
RNA: GGGAGUUCUACAGUCCGACGAUCUUCCAUUUUUCGGUAUAAACCAUAAUUUAGCAGCAAGUUAUGGGUCAUCCGGAUUCUAUGAGGCUUCAUGGGAUGACCCUGGCCAUAAUAAUAAUUUCCAAUAUCACCAUCAUAGUAGUACAACAGAGGAUUGAGCAUCA
B3: chr9:4385736:4385737:+_ENSMUSG00000041124_ENSMUST00000047173|mus_mus|FALSE|FALSE (ssRNA)
RNA: GGGAGUUCUACAGUCCGACGAUCCUUGGCACUAAUGACAUCUUGGACUGGGUAAUUCUUUCUUGUGAAGACAACUAUGCUAAACAUGGUGAAGCCUCUCCUGAGGCUGGUAGCAUCCUACACCCAUUUACUUUGACCACCAAACAACAGAGGAUUGAGCAUCA
B4: chr5:132440482:132440483:+_ENSG00000170606_ENST00000304858|hu_hu|FALSE|FALSE (ssRNA)
RNA: GGGAGUUCUACAGUCCGACGAUCUUAAAGCAUAAUUAGAGCUCCUGCCAUGUAAGUCAUAAUGAAAAGUCUGCUGGAUAGCUAGAGCUGUAGCUAUAGCUCAACUUUCCAAAACAAACUUAUUCUUGUAGACACAUGGUUAAACAACAGAGGAUUGAGCAUCA
B5: 90060176_90060296_4292_3pUTR_ENSG00000197147_ENST00000439853|human|control|control (ssRNA)
RNA: GGGAGUUCUACAGUCCGACGAUCAUUCAUUAAAAAUAUGCAUAAUAAAAGGCCAAGCACAAAGCUCUUUAUAAAAAGGAGCAAAAUGUAUUUUCCAGAAGAGUUAGAUAAAGGCAUGAGAUGAAUUUCAGUUAAAUGGAUCUACAACAGAGGAUUGAGCAUCA
B6: chr7:149068622:149068623:-_ENSMUSG00000025139_ENSMUST00000001950|mus_hu|mus_mus_mus_hu_False|8_58 (ssRNA)
RNA: GGGAGUUCUACAGUCCGACGAUCGUGAGGCCUCUGAGUGUGGCUUGUGGUCUGUCCUGGGUUAGAGUUGUUAAUAUCACUAAGUGGACCAUCUAGAACGUUCCAGUCCCGCCUGACACCUUCAUUCGCAAGAGGGCAGAAAUCCAACAGAGGAUUGAGCAUCA

target: T1, UNK ZnF1-3 (human, UniProt Q9C0B0 31-174); assay: nsRBNS (natural sequence RNA bind-n-seq); RBNS binding buffer (assumed for nsRBNS): 25 mM Tris pH 7.5, 150 mM KCl, 3 mM MgCl2, 0.01% Triton X-100, 500 ug/ml BSA, 20 U/ml SUPERase-In, 4 C; UNK is unkempt and MSI1 is Musashi-1; names of the RNAs are library labels; protein concentration not given here; high values mean tight binding
T1 sequence: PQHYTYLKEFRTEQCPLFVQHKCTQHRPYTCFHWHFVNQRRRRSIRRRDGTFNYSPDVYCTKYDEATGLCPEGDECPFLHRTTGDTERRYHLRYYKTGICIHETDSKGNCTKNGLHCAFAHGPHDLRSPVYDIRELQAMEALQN

| Binder | binding signal [enrichment R] |
| --- | --- |
| B1 | 0.769 |
| B2 | 0.688 |
| B3 | 0.693 |
| B4 | 0.424 |
| B5 | 2.02 |
| B6 | 1.11 |
